Assay results published in patent US20250144178A1, “PHARMACEUTICAL COMPOSITION FOR CANCER TREATMENT COMPRISING FUSION PROTEIN INCLUDING IL-12 AND ANTI-FAP ANTIBODY AND ANTICANCER AGENT” (KANAPH THERAPEUTICS INC., priority 2022, published 2025).

How the values were obtained:
human NK cells = assay: IFN-γ secretion in human NK cells (ELISA); format: cell-based; design: unit not given here; conditions: IL-2 activated human NK cells, 24 hours, FIG. 22
Protocol: (§1) For cytokine measurement, enzyme-linked immunosorbent assay (ELISA, R&D systems) was performed on the supernatant stored at −20° C. in the following steps:
(§2) (i) The capture antibody was diluted according to the Certificate of Analysis (CoA) and coated on a 96-well plate for 24 hours.
(§3) (ii) The wells were washed with a wash solution, and then blocking was performed for 1 hour with 1% BSA (Bovine serum albumin, Sigma) solution.
(§4) (iii) The wells were washed with a wash solution, and then the samples were treated for 2 hours.
(§5) (iv) The wells were washed with a wash solution, and then the detection antibody was diluted according to the Certificate of Analysis and aliquoted into the wells, and then the wells were treated therewith for 2 hours.
(§6) (v) The wells were washed with a wash solution, and then treated with streptavidin-HRP for 20 minutes.
(§7) (vi) The wells were washed with a wash solution, and then treated with a substrate solution for 20 minutes.
(§8) (vii) The wells were treated with a stop solution, and the absorbance was measured at 450 nm.
(§9) Specifically, the human NK cells activated with recombinant human IL-2 (R&D Systems) were diluted to 5×10^5 cells/ml and dispensed in a 96-well plate at 200 μl/well. Recombinant human IL-12, T1.12, T1.01, T1.02 and T1.03 were diluted to 10 nM and dispensed at 20 μl/well. After 24 hours of treatment, the cell supernatant was collected, and the samples were stored at −80° C.

human T cells = assay: IFN-γ secretion in human T cells (ELISA); format: cell-based; conditions: anti-CD3 activated human T cells, 48 hours, FIG. 21
Protocol: as §1, §2, §3, §4, §5, §6, §7, §8
as §9, with “T” for “NK”, “anti-CD3 (OKT3, Invitrogen)” for “recombinant human IL-2 (R&D Systems)”, “48” for “24”

recombinant human FAP = biological target: T1, recombinant human FAP (Homo sapiens, UniProt Q12884); assay: Surface plasmon resonance binding to recombinant human FAP; conditions: SPR, 2 μg/ml protein, FIGS. 7 and 8
T1 sequence (Q12884 1-760): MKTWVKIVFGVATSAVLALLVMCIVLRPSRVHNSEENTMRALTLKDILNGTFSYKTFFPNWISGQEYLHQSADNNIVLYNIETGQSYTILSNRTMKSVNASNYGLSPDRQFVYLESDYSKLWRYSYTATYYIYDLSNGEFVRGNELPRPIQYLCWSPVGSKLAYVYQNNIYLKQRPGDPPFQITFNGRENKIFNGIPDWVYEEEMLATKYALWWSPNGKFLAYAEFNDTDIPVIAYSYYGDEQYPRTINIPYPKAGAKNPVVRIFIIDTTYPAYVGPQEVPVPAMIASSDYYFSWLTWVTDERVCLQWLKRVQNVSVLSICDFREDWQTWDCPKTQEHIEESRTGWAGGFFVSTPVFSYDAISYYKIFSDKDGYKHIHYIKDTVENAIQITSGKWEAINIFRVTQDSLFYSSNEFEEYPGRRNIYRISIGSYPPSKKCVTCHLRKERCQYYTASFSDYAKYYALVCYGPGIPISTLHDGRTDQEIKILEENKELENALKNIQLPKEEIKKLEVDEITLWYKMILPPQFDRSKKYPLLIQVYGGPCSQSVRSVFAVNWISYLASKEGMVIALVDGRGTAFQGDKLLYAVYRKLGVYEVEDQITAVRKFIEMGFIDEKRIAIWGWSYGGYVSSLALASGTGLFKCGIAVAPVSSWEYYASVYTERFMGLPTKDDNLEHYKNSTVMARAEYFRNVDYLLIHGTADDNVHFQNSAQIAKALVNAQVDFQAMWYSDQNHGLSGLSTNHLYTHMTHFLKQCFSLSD

IL-12 receptor beta 1 = biological target: T2, IL-12 receptor beta 1 (Homo sapiens, UniProt P42701); assay: ELISA binding to recombinant human IL-12 receptor; conditions: serial dilution from 5 μg/ml, 1 nM IL-12Rβ1-Biotin, FIG. 17
T2 construct: purchased Acrobiosystems, Newark, USA
Protocol: T1.01, T1.02 and T1.03 were immobilized on a plate, and a recombinant human IL-12 receptor protein conjugated with horseradish peroxidase (HRP) was bound. Specifically, the following steps were performed:
(i) T1.01, T1.02, T1.03 and T1.12 were suspended at 5 μg/ml and diluted by serial dilution. The diluted T1.01, T1.02, T1.03 and T1.12 were aliquoted in a 96-well immune plate and treated for 24 hours.
as §3
(iii) The wells were washed with a wash solution, and then treated with 1 nM IL-12 receptor beta 1-biotin (IL-12Rβ1-Biotin; Acrobiosystems, Newark, USA) for 2 hours.
(iv) The wells were washed with a wash solution, and then treated with streptavidin-HRP for 20 minutes.
(v) The wells were washed with a wash solution, and then treated with a substrate solution for 20 minutes.
(vi) The wells were treated with a stop solution, and the absorbance was measured at 450 nm.

B1: T1.03: K&H bispecific: anti-hu FAP/hu IL-12 mut2, hu IgG1 DANG (seq1, seq2, seq5) (antibody)
heavy: QVQLVQSGAEVKKPGASVKVSCKTSRYTFTEYTIHWVRQAPGQRLEWIGGINPNNGIPNYNQKFKGRVTITVDTSASTAYMELSSLRSEDTAVYYCARRRIAYGYDEGHAMDYWGQGTLVTVSSASTKGPSVFPLAPSSKSTSGGTAALGCLVKDYFPEPVTVSWNSGALTSGVHTFPAVLQSSGLYSLSSVVTVPSSSLGTQTYICNVNHKPSNTKVDKKVEPKSCDKTHTCPPCPAPELLGGPSVFLFPPKPKDTLMISRTPEVTCVVVAVSHEDPEVKFNWYVDGVEVHNAKTKPREEQYGSTYRVVSVLTVLHQDWLNGKEYKCKVSNKALPAPIEKTISKAKGQPREPQVYTLPPSRDELTKNQVSLWCLVKGFYPSDIAVEWESNGQPENNYKTTPPVLDSDGSFFLYSKLTVDKSRWQQGNVFSCSVMHEALHNHYTQKSLSLSPGK
light: DIVMTQSPDSLAVSLGERATINCKSSQSLLYSRNQKNYLAWYQQKPGQPPKLLIFWASTRESGVPDRFSGSGFGTDFTLTISSLQAEDVAVYYCQQYFSYPLTFGQGTKVEIKRTVAAPSVFIFPPSDEQLKSGTASVVCLLNNFYPREAKVQWKVDNALQSGNSQESVTEQDSKDSTYSLSSTLTLSKADYEKHKVYACEVTHQGLSSPVTKSFNRGEC
chain: IWELKKDVYVVELDWYPDAPGEMVVLTCDTPEEDGITWTLDQSSEVLGSGKTLTIQVKEFGDAGQYTCHKGGEVLSHSLLLLHKKEDGIWSTDILKDQKEPKNKTFLRCEAKNYSGRFTCWWLTTISTDLTFSVKSSRGSSDPQGVTCGAATLSAERVRGDNKEYEYSVECQEDSACPAAEESLPIEVMVDAVHKLKYENYTSSFFIRDIIKPDPPKNLQLKPLKNSRQVEVSWEYPDTWSTPHSYFSLTFCVQVQGASAREAADRVFTDKTSATVICRKNASISVRAQDRYYSSSWSEWASVPCSGGGGSGGGGSGGGGSRNLPVATPDPGMFPCLHHSQNLLRAVSNMLQKARQTLEFYPCTSEEIDHEDITKDKTSTVEACLPLELTKNESCLNSRETSFITNGSCLASRKTSFMMALCLSSIYEDLKMYQVEFKTMNAKLLMDPKRQIFLDQNMLAVIDELMQALNFNSETVPQKSSLEEPDFYKTKIKLCILLHAFRIRAVTIDRVMSYLNASGGGGSGGGGS[skipping human IgG1 Fc with changes]
Human NK cells
  average IFN-γ in supernatant: 80
Human T cells
  average IFN-γ in supernatant: 607 µg/mL
Recombinant human FAP
  Binding to recombinant human FAP: may specifically bind to recombinant human FAP
IL-12 receptor beta 1
  Binding to recombinant human IL-12 receptor protein: bind to the recombinant human IL-12 receptor protein in a concentration dependent manner
